Measured values: article PMC7771230
No constants are given. Whether binding was seen depends on the method and setting. Binding seen in cells or lysates may run through a third protein. Some entries that bind do so weakly or less than the wild type. Tags and fused reporters may be left off the sequences shown.

Assays:
[1] = biological target: HA-tagged NiV P N-terminal residues 1 to 407 (PNT) (Nipah virus) (UniProt Q9IK91); test: co-IP
[2] = biological target: HA-tagged Nipah virus (NiV) phosphoprotein (P) (Nipah virus) (UniProt Q9IK91); test: co-IP

Molecule	binding [1]	binding [2]
FLAG-tagged STAT5a (from UniProt P42229-1 1-794)	no binding	no binding
FLAG-tagged STAT2 (from UniProt P52630 1-851)	binds	binds
FLAG-tagged STAT3 (from UniProt P40763-1 1-770)	no binding	no binding
FLAG-tagged STAT5b (from UniProt P51692 1-787)	no binding	no binding
FLAG-tagged STAT4 (protein, UniProt Q14765 1-748) MSQWNQVQQLEIKFLEQVDQFYDDNFPMEIRHLLAQWIENQDWEAASNNETMATILLQNLLIQLDEQLGRVSKEKNLLLIHNLKRIRKVLQGKFHGNPMHVAVVISNCLREERRILAAANMPVQGPLEKSLQSSSVSERQRNVEHKVAAIKNSVQMTEQDTKYLEDLQDEFDYRYKTIQTMDQSDKNSAMVNQEVLTLQEMLNSLDFKRKEALSKMTQIIHETDLLMNTMLIEELQDWKRRQQIACIGGPLHNGLDQLQNCFTLLAESLFQLRRQLEKLEEQSTKMTYEGDPIPMQRTHMLERVTFLIYNLFKNSFVVERQPCMPTHPQRPLVLKTLIQFTVKLRLLIKLPELNYQVKVKASIDKNVSTLSNRRFVLCGTNVKAMSIEESSNGSLSVEFRHLQPKEMKSSAGGKGNEGCHMVTEELHSITFETQICLYGLTIDLETSSLPVVMISNVSQLPNAWASIIWYNVSTNDSQNLVFFNNPPPATLSQLLEVMSWQFSSYVGRGLNSDQLHMLAEKLTVQSSYSDGHLTWAKFCKEHLPGKSFTFWTWLEAILDLIKKHILPLWIDGYVMGFVSKEKERLLLKDKMPGTFLLRFSESHLGGITFTWVDHSESGEVRFHSVEPYNKGRLSALPFADILRDYKVIMAENIPENPLKYLYPDIPKDKAFGKHYSSQPCEVSRPTERGDKGYVPSVFIPISTIRSDSTEPHSPSDLLPMSPSVYAVLRENLSPTTIETAMKSPYSAE	binds	binds
